Source: article PMC11995724, “Antibiotic target discovery by integrated phenotypic and activity-based profiling of electrophilic fragments” (Cell chemical biology, 2025)
The whole screen tested about 3,200 compounds, of which about 110 (3.4%) showed an effect of 50% or more. Some of the results follow.

Each compound was assayed on T1, V. cholerae SAD30. Details: relative growth, OD600, LB; 25 µM; inhibitor.
T1 construct: SAD30
Parameters: species or system S. aureus MSSA476 (TSB) or V. cholerae SAD30 (LB); 384-well bacterial growth screen at 25 uM, OD600 relative to DMSO control

| SMILES | % of control remaining |
| --- | --- |
| CC(Cl)C(=O)NCc1nnc(-c2ccncc2F)s1 (centres unmarked) [7-K18, 2-chloro-N-{[5-(3-fluoropyridin-4-yl)-1,3,4-thiadiazol-2-yl]methyl}propanamide] | 77.317% |
| Cn1cc(C=C(C#N)C(=O)Nc2ccc(Oc3ccccc3)cc2)cn1 [9-M10, 2-cyano-3-(1-methyl-1H-pyrazol-4-yl)-N-(4-phenoxyphenyl)prop-2-enamide] | 88.8511% |
| CC(Cl)C(=O)NCc1cnn2ccccc12 (centres unmarked) [7-M13, 2-chloro-N-({pyrazolo[1,5-a]pyridin-3-yl}methyl)propanamide] | 89.0798% |
| CC(C)C(NC(=O)CCl)c1ccccc1 (centres unmarked) [4-K11, 2-chloro-N-(2-methyl-1-phenylpropyl)acetamide] | 94.8889% |
| C=CC(=O)Nc1cc(C)cc(S(C)(=O)=O)c1 [3-F14, N-(3-methanesulfonyl-5-methylphenyl)prop-2-enamide] | 94.3834% |
| COc1ccccc1NC(=O)C(C#N)=Cc1ccco1 [8-H08, 2-cyano-3-(furan-2-yl)-N-(2-methoxyphenyl)prop-2-enamide] | 61.5228% |
| N#CC(=Cc1ccco1)C(=O)NS(=O)(=O)N1CCc2ccccc21 [9-J18, 2-cyano-N-(2,3-dihydro-1H-indole-1-sulfonyl)-3-(furan-2-yl)prop-2-enamide] | 83.8205% |
| C=CC(=O)NCc1nc(C2CC2)cs1 [2-A19, N-[(4-cyclopropyl-1,3-thiazol-2-yl)methyl]prop-2-enamide] | 94.3646% |
| C=CC(=O)NCC(C)c1ncc(C)s1 (centres unmarked) [1-P10, N-[2-(5-methyl-1,3-thiazol-2-yl)propyl]prop-2-enamide] | 86.1138% |
| COCC1(NC(=O)C(C)Cl)CC=CCC1 (centres unmarked) [6-J13, 2-chloro-N-[1-(methoxymethyl)cyclohex-3-en-1-yl]propanamide] | 86.4537% |
| N#CC(=Cc1ccc(Cl)c([N+](=O)[O-])c1)C(=O)N1CCCC1 [9-N05, 3-(4-chloro-3-nitrophenyl)-2-(pyrrolidine-1-carbonyl)prop-2-enenitrile] | 91.1625% |
| C=CC(=O)N1CCC(C(=O)N2CCC(C(=O)NCC(C)C)CC2)CC1 [3-C17, N-(2-methylpropyl)-1-[1-(prop-2-enoyl)piperidine-4-carbonyl]piperidine-4-carboxamide] | 103.205% |
| CC(C)NC(=O)C(C#N)=Cc1ccc(-c2ccc([N+](=O)[O-])cc2)o1 [8-I19, 2-cyano-3-[5-(4-nitrophenyl)furan-2-yl]-N-(propan-2-yl)prop-2-enamide] | 66.1455% |
| C=CC(=O)NCc1ncnn1-c1ccccc1 [3-H11, N-[(1-phenyl-1H-1,2,4-triazol-5-yl)methyl]prop-2-enamide] | 91.2075% |
| CC(NC(=O)C(C#N)=Cc1ccccc1)C12CC3CC(CC(C3)C1)C2 (centres unmarked) [8-N20, N-[1-(adamantan-1-yl)ethyl]-2-cyano-3-phenylprop-2-enamide] | 70.2243% |
| Cn1cc(C(=O)CCl)cc1C(=O)C(Cl)(Cl)Cl [10-N22, 2,2,2-trichloro-1-[4-(2-chloroacetyl)-1-methyl-1H-pyrrol-2-yl]ethan-1-one] | 78.083% |
| Cl.O=C(CCl)NCC(c1ccccc1Cl)N1CCCC1 (centres unmarked) [6-G17, 2-chloro-N-[2-(2-chlorophenyl)-2-(pyrrolidin-1-yl)ethyl]acetamide hydrochloride] | 81.1451% |
| Cc1cc(C(=O)C(C)Cl)c(C)n1Cc1ccco1 (centres unmarked) [10-E06, 2-chloro-1-{1-[(furan-2-yl)methyl]-2,5-dimethyl-1H-pyrrol-3-yl}propan-1-one] | 94.9153% |
| O=S(=O)(CC=C(Cl)Cl)N1CCSSCC1 [10-P19, 5-(3,3-dichloroprop-2-ene-1-sulfonyl)-1,2,5-dithiazepane] | 92.5774% |
| N#CC(=Cc1cccc(-c2ccncc2)c1)C(=O)NCc1ccco1 [9-B06, 2-cyano-N-[(furan-2-yl)methyl]-3-[3-(pyridin-4-yl)phenyl]prop-2-enamide] | 87.4915% |
| COc1ccccc1CN(C)C(=O)CCl [6-C09, 2-chloro-N-[(2-methoxyphenyl)methyl]-N-methylacetamide] | 89.7905% |
| Cc1oc(C(=O)O)cc1C(=O)CCl [10-M21, 4-(2-chloroacetyl)-5-methylfuran-2-carboxylic acid] | 100.37% |
| CC(C)C(C(=O)O)N1C(=O)C=CC1=O (centres unmarked) [10-I22, 2-(2,5-dioxo-2,5-dihydro-1H-pyrrol-1-yl)-3-methylbutanoic acid] | 102.708% |
| N#CC(=Cc1ccc(-c2ccc(F)cc2)o1)C(=O)NC1CCCCC1 [9-H17, 2-cyano-N-cyclohexyl-3-[5-(4-fluorophenyl)furan-2-yl]prop-2-enamide] | 50.2379% |

| SMILES | % of control remaining |
| --- | --- |
| CC(=O)Nc1c(C)cc(C)c(C(=O)CCl)c1C [10-A12, N-[3-(2-chloroacetyl)-2,4,6-trimethylphenyl]acetamide] | 97.5648% |
| N#CCCSc1ccccc1NC(=O)CCl [6-N12, 2-chloro-N-{2-[(2-cyanoethyl)sulfanyl]phenyl}acetamide] | 88.5771% |
| C=CC(=O)N1CCOC(c2nccs2)C1 (centres unmarked) [3-H09, 1-[2-(1,3-thiazol-2-yl)morpholin-4-yl]prop-2-en-1-one] | 92.0897% |
| C=CC(=O)NCc1noc(-c2cccs2)n1 [3-H15, N-{[5-(thiophen-2-yl)-1,2,4-oxadiazol-3-yl]methyl}prop-2-enamide] | 89.0902% |
| C=CC(=O)N1CCCCC(S(C)(=O)=O)C1 (centres unmarked) [2-E17, 1-(3-methanesulfonylazepan-1-yl)prop-2-en-1-one] | 92.6662% |
| O=C(CCl)NCCc1ccc(Cl)cc1Cl [6-M16, 2-chloro-N-[2-(2,4-dichlorophenyl)ethyl]acetamide] | 96.0091% |
| Cc1cc(C)c(NC(=O)C(C)Cl)c(Cl)c1 (centres unmarked) [6-E10, 2-chloro-N-(2-chloro-4,6-dimethylphenyl)propanamide] | 86.1503% |
| CC(Cl)C(=O)N1CCCC(c2cnn(C)c2)C1 (centres unmarked) [7-M16, 2-chloro-1-[3-(1-methyl-1H-pyrazol-4-yl)piperidin-1-yl]propan-1-one] | 78.7709% |
| C=CC(=O)Nc1cccc2c1CCN2C(C)=O [1-F05, N-(1-acetyl-2,3-dihydro-1H-indol-4-yl)prop-2-enamide] | 92.3767% |
| O=C(CCl)NCCS(=O)(=O)N1CCc2ccccc21 [6-H04, 2-chloro-N-[2-(2,3-dihydro-1H-indole-1-sulfonyl)ethyl]acetamide] | 103.138% |
| C=CC(=O)Nc1ccccc1-n1nccn1 [3-H10, N-[2-(2H-1,2,3-triazol-2-yl)phenyl]prop-2-enamide] | 92.7954% |
| O=C(CCl)Nc1ccccc1F [4-M16, 2-chloro-N-(2-fluorophenyl)acetamide] | 98.3394% |
| O=C(CCl)NCC1CCCCN1C(=O)C(F)(F)F (centres unmarked) [5-C07, 2-chloro-N-{[1-(2,2,2-trifluoroacetyl)piperidin-2-yl]methyl}acetamide] | 100.536% |
| CN1C=C(C(F)(F)F)C=CC1=C(C#N)C(=O)Nc1ccccc1F [8-H20, 2-cyano-N-(2-fluorophenyl)-2-[1-methyl-5-(trifluoromethyl)-1,2-dihydropyridin-2-ylidene]acetamide] | 66.9613% |
| Cc1cc(C(=O)CCl)c(C)n1-c1ccc2c(c1)OCO2 [10-K14, 1-[1-(1,3-dioxaindan-5-yl)-2,5-dimethyl-1H-pyrrol-3-yl]-2-chloroethan-1-one] | 102.552% |
| Cc1cc(CO[C@H]2CC[C@H](NC(=O)CCl)CC2)on1 [6-K19, 2-chloro-N-[(1r,4r)-4-[(3-methyl-1,2-oxazol-5-yl)methoxy]cyclohexyl]acetamide] | 92.9756% |
| C=CC(=O)Nc1cc(CC(C)(C)C)no1 [1-I19, N-[3-(2,2-dimethylpropyl)-1,2-oxazol-5-yl]prop-2-enamide] | 92.9746% |
| N#CC(=Cc1ccco1)C(=O)NC1CC1 [8-N21, 2-cyano-N-cyclopropyl-3-(furan-2-yl)prop-2-enamide] | 77.9742% |
| N#Cc1cc([N+](=O)[O-])ccc1NC(=O)CCl [4-O09, 2-chloro-N-(2-cyano-4-nitrophenyl)acetamide] | 91.611% |
| COC(=O)c1c(C(=O)CCl)c(C)n(C(C)C)c1C [10-K21, methyl 4-(2-chloroacetyl)-2,5-dimethyl-1-(propan-2-yl)-1H-pyrrole-3-carboxylate] | 96.9414% |
| Cc1cc(F)c(C(=O)CCl)cc1F [10-L19, 2-chloro-1-(2,5-difluoro-4-methylphenyl)ethan-1-one] | 32.7294% |
| Cc1ccccc1N(CC(=O)N1CCCCC1)C(=O)C(C)Cl (centres unmarked) [7-G20, 2-chloro-N-(2-methylphenyl)-N-[2-oxo-2-(piperidin-1-yl)ethyl]propanamide] | 76.2597% |
| O=C(CCl)NCC1(c2ccccc2)CC1 [5-E15, 2-chloro-N-[(1-phenylcyclopropyl)methyl]acetamide] | 92.8024% |
